Reference: the BET-seq Pho4 binding data (Le et al. 2018)
The other results are listed elsewhere or left out. These are noisy estimates, calculated here from bound and input reads.

molecular target: T1, Pho4 (S. cerevisiae) (UniProt P07270); test: relative binding free energy (BET-seq); higher = weaker binding; conditions: reference: library average
T1 sequence: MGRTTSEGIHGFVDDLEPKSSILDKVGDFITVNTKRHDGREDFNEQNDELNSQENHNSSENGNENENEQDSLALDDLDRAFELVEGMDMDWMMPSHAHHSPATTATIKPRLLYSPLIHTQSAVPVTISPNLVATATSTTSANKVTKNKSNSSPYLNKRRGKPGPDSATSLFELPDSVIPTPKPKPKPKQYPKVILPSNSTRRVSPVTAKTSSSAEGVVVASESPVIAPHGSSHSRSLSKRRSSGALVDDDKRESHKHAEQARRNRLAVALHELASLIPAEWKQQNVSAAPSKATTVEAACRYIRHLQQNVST

Row | Sequence | relative binding free energy
1 | TTATTCACGTGGTTGG | 0.31 kcal/mol
2 | AGGGGCACGTGCTAGT | -0.25 kcal/mol
3 | TGGCGCACGTGTTATG | 0.1 kcal/mol
4 | GTCTGCACGTGATGTT | 0.25 kcal/mol
5 | TGCTCCACGTGTGGGG | -0.08 kcal/mol
6 | GACAACACGTGTTTGG | 0.16 kcal/mol
7 | ATGGGCACGTGGTATT | -0.19 kcal/mol
8 | CCTTGCACGTGGTGTG | -0.21 kcal/mol
9 | AGCGGCACGTGTAGCG | 0 kcal/mol
10 | TAATTCACGTGGATAT | 0.27 kcal/mol
11 | GAACGCACGTGTGTTT | 0.1 kcal/mol
12 | GTGGGCACGTGTACGC | 0.03 kcal/mol
13 | GGGTTCACGTGAAAGG | 0.45 kcal/mol
14 | GGGTACACGTGCCGTG | -0.03 kcal/mol
15 | CGGTTCACGTGAAATT | 0.52 kcal/mol
16 | TGGTACACGTGGAGGG | 0 kcal/mol
17 | AGAGGCACGTGTGGGA | -0.01 kcal/mol
18 | GGTGGCACGTGAGGAT | 0.24 kcal/mol
19 | TGGTGCACGTGGTATT | -0.09 kcal/mol
20 | TGTGGCACGTGCTGGC | -0.15 kcal/mol
21 | AACATCACGTGTGGGA | 0.2 kcal/mol
22 | AGTCTCACGTGTGATT | 0.23 kcal/mol
23 | TTTAGCACGTGATCTA | -0.03 kcal/mol

Row | Sequence | relative binding free energy
24 | CTTGGCACGTGTTTTT | -0.02 kcal/mol
25 | ATTGGCACGTGGCATT | -0.15 kcal/mol
26 | AAGGGCACGTGATTTA | 0.01 kcal/mol
27 | ATTAACACGTGTGGAT | -0.02 kcal/mol
28 | GGTGTCACGTGCGTAA | 0.02 kcal/mol
29 | GCGGGCACGTGTTTAG | 0.02 kcal/mol
30 | ACTTGCACGTGATGGG | 0.26 kcal/mol
31 | ATGTGCACGTGGCTGC | -0.04 kcal/mol
32 | ATTAACACGTGAGGGA | 0.28 kcal/mol
33 | GCTTACACGTGGTAAG | 0.24 kcal/mol
34 | GTATTCACGTGCGAGG | 0.16 kcal/mol
35 | AATTTCACGTGGTGAG | 0.14 kcal/mol
36 | GCTGGCACGTGGTATG | -0.23 kcal/mol
37 | GTATTCACGTGTGTTC | 0.15 kcal/mol
38 | GTTGTCACGTGGGCAT | -0.02 kcal/mol
39 | TCAATCACGTGAGGTT | 0.27 kcal/mol
40 | AGTGTCACGTGGATGA | -0.02 kcal/mol
41 | TTAAACACGTGTCAGT | 0.18 kcal/mol
42 | ATGGGCACGTGGATCG | -0.16 kcal/mol
43 | AGCTTCACGTGTGTTT | 0.24 kcal/mol
44 | ATACTCACGTGTAGGT | 0.06 kcal/mol
45 | AGAGTCACGTGTGCTA | 0.19 kcal/mol
46 | ATATGCACGTGGTCGT | -0.11 kcal/mol

Row | Sequence | relative binding free energy
47 | ACTGCCACGTGTGGGT | -0.09 kcal/mol
48 | GGGACCACGTGTGGGA | -0.07 kcal/mol
49 | TCGGGCACGTGTGATT | 0.02 kcal/mol
50 | TAGTGCACGTGATTGA | 0.07 kcal/mol
51 | TGGGACACGTGGTCAA | -0.03 kcal/mol
52 | TGGGTCACGTGTTGTA | 0.22 kcal/mol
53 | GCGTGCACGTGGTGAT | 0 kcal/mol
54 | TCATACACGTGAGGGG | 0.26 kcal/mol
55 | AGTGACACGTGCCTGG | -0.02 kcal/mol
56 | GTTTCCACGTGGGATA | 0.07 kcal/mol
57 | TGGGCCACGTGCGAGG | -0.16 kcal/mol
58 | GTGGACACGTGGGGCA | -0.25 kcal/mol
59 | GGATTCACGTGGGTTA | 0.3 kcal/mol
60 | TCTTGCACGTGAAGAT | 0.37 kcal/mol
61 | CGGGACACGTGGGGGC | -0.16 kcal/mol
62 | GTAGCCACGTGGGAGG | -0.18 kcal/mol
63 | AGAGTCACGTGGTATA | -0.07 kcal/mol
64 | TTAAGCACGTGTGGGG | 0 kcal/mol
65 | CGATTCACGTGGTGCG | 0.13 kcal/mol
66 | ATAAGCACGTGAGGCT | 0.2 kcal/mol
67 | GTTAACACGTGAGTTA | 0.18 kcal/mol
68 | CTGTGCACGTGATGTG | 0.17 kcal/mol
69 | GGCCCCACGTGGGTGG | -0.3 kcal/mol

Row | Sequence | relative binding free energy
70 | GTGTGCACGTGCTAGG | -0.08 kcal/mol
71 | TTCGGCACGTGGAGTA | -0.17 kcal/mol
72 | TTGAACACGTGCTTGG | 0.02 kcal/mol
73 | CGGGACACGTGAGGTT | 0.25 kcal/mol
74 | TTGTTCACGTGATCGG | 0.09 kcal/mol
75 | CTGAGCACGTGTTTTG | -0.07 kcal/mol
76 | TTTTGCACGTGGGACA | -0.11 kcal/mol
77 | GGTCTCACGTGTCTGG | 0.24 kcal/mol
78 | TGGCTCACGTGGGGCG | 0.11 kcal/mol
79 | GTATTCACGTGATTAA | 0.3 kcal/mol
80 | CACGGCACGTGATGGG | 0.03 kcal/mol
81 | TCCGGCACGTGTGTGT | 0 kcal/mol
82 | TAATTCACGTGGCTGA | 0.4 kcal/mol
83 | CATGGCACGTGGGGCA | -0.14 kcal/mol
84 | GGGGTCACGTGCGCTT | 0.05 kcal/mol
85 | CTGAGCACGTGGAGAG | 0 kcal/mol
86 | GTAGGCACGTGGATGG | -0.07 kcal/mol
87 | CAGGGCACGTGTGTGG | -0.06 kcal/mol
88 | AATTACACGTGCGTAT | 0.15 kcal/mol
89 | TAATTCACGTGAGTAG | 0.49 kcal/mol
90 | TTCGTCACGTGTCAAG | 0.18 kcal/mol
91 | GGGTGCACGTGAGTGC | 0.29 kcal/mol
92 | AGTTTCACGTGAGGAA | 0.48 kcal/mol

Row | Sequence | relative binding free energy
93 | GTTATCACGTGGGAGA | 0.13 kcal/mol
94 | TTTATCACGTGTCAGT | 0.3 kcal/mol
95 | GTAGTCACGTGCATGG | 0.21 kcal/mol
96 | TAGGTCACGTGGGTTC | 0.05 kcal/mol
97 | CGAGGCACGTGGATTG | -0.09 kcal/mol
98 | TGGAGCACGTGTGGAA | 0.1 kcal/mol
99 | ATGCGCACGTGTTTGG | -0.09 kcal/mol
100 | TGGTGCACGTGCAATA | -0.05 kcal/mol
101 | GGTGCCACGTGTAGTG | 0.05 kcal/mol
102 | GTGTGCACGTGGACTG | 0.08 kcal/mol
103 | TAGTTCACGTGTAAAG | 0.26 kcal/mol
104 | TGAGTCACGTGATAGT | 0.16 kcal/mol
105 | AATGGCACGTGGGTGG | -0.23 kcal/mol
106 | GTGGTCACGTGGCGTG | -0.01 kcal/mol
107 | TGATTCACGTGTATTA | 0.32 kcal/mol
108 | TGTATCACGTGAAGGA | 0.21 kcal/mol
109 | AAGGACACGTGTATAG | 0.08 kcal/mol
110 | CTGGGCACGTGAGTGG | 0.12 kcal/mol
111 | TAATTCACGTGAAGGG | 0.48 kcal/mol
112 | GGGTACACGTGTGGGA | 0.17 kcal/mol
113 | GTTCACACGTGGCGTT | 0.11 kcal/mol
114 | AATATCACGTGATGTT | 0.32 kcal/mol
115 | TATCACACGTGGTGTT | 0 kcal/mol
